Measurements as given in patent publication US20250026846A1 (JCR PHARMACEUTICALS, published 2025).

T1: recombinant monkey TfR (r monkey TfR: Sino Biological Inc.), crab-eating monkey TfR extracellular region with … (crab-eating monkey (Macaca fascicularis))
T1 construct: Bought from Sino Biological; also called r monkey TfR-ECD (Histag); not shown: histidine tag at the N-terminus
T1 chain: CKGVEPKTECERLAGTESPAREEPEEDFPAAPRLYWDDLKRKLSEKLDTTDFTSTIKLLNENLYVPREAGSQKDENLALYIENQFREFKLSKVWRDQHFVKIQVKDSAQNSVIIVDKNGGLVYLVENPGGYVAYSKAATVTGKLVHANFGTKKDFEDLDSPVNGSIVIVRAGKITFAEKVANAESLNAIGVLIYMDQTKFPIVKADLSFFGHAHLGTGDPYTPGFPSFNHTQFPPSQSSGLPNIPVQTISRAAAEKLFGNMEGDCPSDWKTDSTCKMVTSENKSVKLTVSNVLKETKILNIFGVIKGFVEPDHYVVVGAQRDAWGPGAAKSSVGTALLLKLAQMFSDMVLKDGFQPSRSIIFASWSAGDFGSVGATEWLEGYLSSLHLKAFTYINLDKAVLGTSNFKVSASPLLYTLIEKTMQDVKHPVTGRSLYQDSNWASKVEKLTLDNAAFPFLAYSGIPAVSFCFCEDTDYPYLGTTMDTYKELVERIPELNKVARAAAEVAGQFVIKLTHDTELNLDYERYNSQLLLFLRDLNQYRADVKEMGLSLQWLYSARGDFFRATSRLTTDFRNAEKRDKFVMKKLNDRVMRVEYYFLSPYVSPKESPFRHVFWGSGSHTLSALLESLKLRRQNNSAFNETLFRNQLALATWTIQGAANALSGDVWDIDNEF


Experiments:
[1] = target: T2, recombinant human TfR (r human TfR: Sino Biological Inc.), hTfR extracellular region with a histidine tag at … (human, UniProt P02786); assay: BLI (Octet RED96), His-tagged TfR ECD on Ni-NTA sensor
T2 construct: Bought from Sino Biological; also called r human TfR-ECD (Histag); recombinant hTfR; not shown: histidine tag at the N-terminus

[2] = target: T1, recombinant monkey TfR (r monkey TfR: …); assay: as above

| Binder | Kd [1] | koff [1] | kon [1] | Kd [2] | koff [2] | kon [2] |
| --- | --- | --- | --- | --- | --- | --- |
| IgG4 GS10-GBA (other, also called IgG4 HC-GS10-GBA) light: DIVMTQTPLSLSVTPGQPASISCRSSQSLVHSNGNTYLHWYLQKPGQSPQLLIYKVSNRFSGVPDRFSGSGSGTDFTLKISRVEAEDVGVYYCSQSTHVPWTFGQGTKVEIKRTVAAPSVFIFPPSDEQLKSGTASVVCLLNNFYPREAKVQWKVDNALQSGNSQESVTEQDSKDSTYSLSSTLTLSKADYEKHKVYACEVTHQGLSSPVTKSFNRGEC heavy: EVQLVQSGAEVKKPGESLKISCKGSGYSFMNYWLGWVRQMPGKGLEWMGDIYPGGDYPTYSEKFKVQVTISADKSISTAYLQLSSLKASDTAMYYCARSGNYDEVAYWGQGTLVTVSSASTKGPSVFPLAPCSRSTSESTAALGCLVKDYFPEPVTVSWNSGALTSGVHTFPAVLQSSGLYSLSSVVTVPSSSLGTKTYTCNVDHKPSNTKVDKRV[sequence of human IgG4 Fc with S228P L445P (EU numbers) omitted]GGGGSGGGGSGGGGSGGGGSGGGGSGGGGSGGGGSGGGGSGGGGSGGGGSARPCIPKSFGYSSVVCVCNATYCDSFDPPTFPALGTFSRYESTRSGRRMELSMGPIQANHTGTGLLLTLQPEQKFQKVKGFGGAMTDAAALNILALSPPAQNLLLKSYFSEEGIGYNIIRVPMASCDFSIRTYTYADTPDDFQLHNFSLPEEDTKLKIPLIHRALQLAQRPVSLLASPWTSPTWLKTNGAVNGKGSLKGQPGDIYHQTWARYFVKFLDAYAEHKLQFWAVTAENEPSAGLLSGYPFQCLGFTPEHQRDFIARDLGPTLANSTHHNVRLLMLDDQRLLLPHWAKVVLTDPEAAKYVHGIAVHWYLDFLAPAKATLGETHRLFPNTMLFASEACVGSKFWEQSVRLGSWDRGMQYSHSIITNLLYHVVGWTDWNLALNPEGGPNWVRNFVDSPIIVDITKDTFYKQPMFYHLGHFSKFIPEGSQRVGLVASQKNDLDAVALMHPDGSAVVVVLNRSSKDVPLTIKDPAVGFLETISPGYSIHTYLWRRQ | < 1 pM | < 1e-07 s⁻¹ | 957000 M⁻¹ s⁻¹ | < 1 pM | < 1e-07 s⁻¹ | 449000 M⁻¹ s⁻¹ |
| IgG4 GS10-GALC (other, also called IgG4 HC-GS10-GALC) light: DIVMTQTPLSLSVTPGQPASISCRSSQSLVHSNGNTYLHWYLQKPGQSPQLLIYKVSNRFSGVPDRFSGSGSGTDFTLKISRVEAEDVGVYYCSQSTHVPWTFGQGTKVEIKRTVAAPSVFIFPPSDEQLKSGTASVVCLLNNFYPREAKVQWKVDNALQSGNSQESVTEQDSKDSTYSLSSTLTLSKADYEKHKVYACEVTHQGLSSPVTKSFNRGEC heavy: EVQLVQSGAEVKKPGESLKISCKGSGYSFMNYWLGWVRQMPGKGLEWMGDIYPGGDYPTYSEKFKVQVTISADKSISTAYLQLSSLKASDTAMYYCARSGNYDEVAYWGQGTLVTVSSASTKGPSVFPLAPCSRSTSESTAALGCLVKDYFPEPVTVSWNSGALTSGVHTFPAVLQSSGLYSLSSVVTVPSSSLGTKTYTCNVDHKPSNTKVDKRV[sequence of human IgG4 Fc with S228P L445P (EU numbers) omitted]GGGGSGGGGSGGGGSGGGGSGGGGSGGGGSGGGGSGGGGSGGGGSGGGGSYVLDDSDGLGREFDGIGAVSGGGATSRLLVNYPEPYRSQILDYLFKPNFGASLHILKVEIGGDGQTTDGTEPSHMHYALDENYFRGYEWWLMKEAKKRNPNITLIGLPWSFPGWLGKGFDWPYVNLQLTAYYVVTWIVGAKRYHDLDIDYIGIWNERSYNANYIKILRKMLNYQGLQRVKIIASDNLWESISASMLLDAELFKVVDVIGAHYPGTHSAKDAKLTGKKLWSSEDFSTLNSDMGAGCWGRILNQNYINGYMTSTIAWNLVASYYEQLPYGRCGLMTAQEPWSGHYVVESPVWVSAHTTQFTQPGWYYLKTVGHLEKGGSYVALTDGLGNLTIIIETMSHKHSKCIRPFLPYFNVSQQFATFVLKGSFSEIPELQVWYTKLGKTSERFLFKQLDSLWLLDSDGSFTLSLHEDELFTLTTLTTGRKGSYPLPPKSQPFPSTYKDDFNVDYPFFSEAPNFADQTGVFEYFTNIEDPGEHHFTLRQVLNQRPITWAADASNTISIIGDYNWTNLTIKCDVYIETPDTGGVFIAGRVNKGGILIRSARGIFFWIFANGSYRVTGDLAGWIIYALGRVEVTAKKWYTLTLTIKGHFTSGMLNDKSLWTDIPVNFPKNGWAAIGTHSFEFAQFDNFLVEATR | < 1 pM | < 1e-07 s⁻¹ | 31400 M⁻¹ s⁻¹ | < 1 pM | < 1e-07 s⁻¹ | 28000 M⁻¹ s⁻¹ |

Further lines, results first:

| Kd [1] | koff [1] | kon [1] | Kd [2] | koff [2] | kon [2] | Binder |
| --- | --- | --- | --- | --- | --- | --- |
| < 1 pM | < 1e-07 s⁻¹ | 758000 M⁻¹ s⁻¹ | < 1 pM | < 1e-07 s⁻¹ | 341000 M⁻¹ s⁻¹ | IgG4 TPP1 (other, Antibody-enzyme fusion: heavy chain (IgG4) of antibody No. 3N, Gly-Ser, then hTPP-1; also called IgG4 HC-TPP1) light: DIVMTQTPLSLSVTPGQPASISCRSSQSLVHSNGNTYLHWYLQKPGQSPQLLIYKVSNRFSGVPDRFSGSGSGTDFTLKISRVEAEDVGVYYCSQSTHVPWTFGQGTKVEIKRTVAAPSVFIFPPSDEQLKSGTASVVCLLNNFYPREAKVQWKVDNALQSGNSQESVTEQDSKDSTYSLSSTLTLSKADYEKHKVYACEVTHQGLSSPVTKSFNRGEC heavy: EVQLVQSGAEVKKPGESLKISCKGSGYSFMNYWLGWVRQMPGKGLEWMGDIYPGGDYPTYSEKFKVQVTISADKSISTAYLQLSSLKASDTAMYYCARSGNYDEVAYWGQGTLVTVSSASTKGPSVFPLAPCSRSTSESTAALGCLVKDYFPEPVTVSWNSGALTSGVHTFPAVLQSSGLYSLSSVVTVPSSSLGTKTYTCNVDHKPSNTKVDKRV[sequence of human IgG4 Fc with S228P L445P (EU numbers) omitted]GSSYSPEPDQRRTLPPGWVSLGRADPEEELSLTFALRQQNVERLSELVQAVSDPSSPQYGKYLTLENVADLVRPSPLTLHTVQKWLLAAGAQKCHSVITQDFLTCWLSIRQAELLLPGAEFHHYVGGPTETHVVRSPHPYQLPQALAPHVDFVGGLHHFPPTSSLRQRPEPQVTGTVGLHLGVTPSVIRKRYNLTSQDVGSGTSNNSQACAQFLEQYFHDSDLAQFMRLFGGNFAHQASVARVVGQQGRGRAGIEASLDVQYLMSAGANISTWVYSSPGRHEGQEPFLQWLMLLSNESALPHVHTVSYGDDEDSLSSAYIQRVNTELMKAAARGLTLLFASGDSGAGCWSVSGRHQFRPTFPASSPYVTTVGGTSFQEPFLITNEIVDYISGGGFSNVFPRPSYQEEAVTKFLSSSPHLPPSSYFNASGRAYPDVAALSDGYWVVSNRVPIPWVSGTSASTPVFGGILSLINEHRILSGRPPLGFLNPRLYQQHGAGLFDVTRGCHESCLDEEVEGQGFCSGPGWDPVTGWGTPNFPALLKTLLNP |
| < 1 pM | < 1e-07 s⁻¹ | 682000 M⁻¹ s⁻¹ | < 1 pM | < 1e-07 s⁻¹ | 302000 M⁻¹ s⁻¹ | IgG4 GS20-TPP1 (other, also called IgG4 HC-GS20-TPP1) light: DIVMTQTPLSLSVTPGQPASISCRSSQSLVHSNGNTYLHWYLQKPGQSPQLLIYKVSNRFSGVPDRFSGSGSGTDFTLKISRVEAEDVGVYYCSQSTHVPWTFGQGTKVEIKRTVAAPSVFIFPPSDEQLKSGTASVVCLLNNFYPREAKVQWKVDNALQSGNSQESVTEQDSKDSTYSLSSTLTLSKADYEKHKVYACEVTHQGLSSPVTKSFNRGEC heavy: EVQLVQSGAEVKKPGESLKISCKGSGYSFMNYWLGWVRQMPGKGLEWMGDIYPGGDYPTYSEKFKVQVTISADKSISTAYLQLSSLKASDTAMYYCARSGNYDEVAYWGQGTLVTVSSASTKGPSVFPLAPCSRSTSESTAALGCLVKDYFPEPVTVSWNSGALTSGVHTFPAVLQSSGLYSLSSVVTVPSSSLGTKTYTCNVDHKPSNTKVDKRV[sequence of human IgG4 Fc with S228P L445P (EU numbers) omitted]GGGGSGGGGSGGGGSGGGGSGGGGSGGGGSGGGGSGGGGSGGGGSGGGGSGGGGSGGGGSGGGGSGGGGSGGGGSGGGGSGGGGSGGGGSGGGGSGGGGSSYSPEPDQRRTLPPGWVSLGRADPEEELSLTFALRQQNVERLSELVQAVSDPSSPQYGKYLTLENVADLVRPSPLTLHTVQKWLLAAGAQKCHSVITQDFLTCWLSIRQAELLLPGAEFHHYVGGPTETHVVRSPHPYQLPQALAPHVDFVGGLHHFPPTSSLRQRPEPQVTGTVGLHLGVTPSVIRKRYNLTSQDVGSGTSNNSQACAQFLEQYFHDSDLAQFMRLFGGNFAHQASVARVVGQQGRGRAGIEASLDVQYLMSAGANISTWVYSSPGRHEGQEPFLQWLMLLSNESALPHVHTVSYGDDEDSLSSAYIQRVNTELMKAAARGLTLLFASGDSGAGCWSVSGRHQFRPTFPASSPYVTTVGGTSFQEPFLITNEIVDYISGGGFSNVFPRPSYQEEAVTKFLSSSPHLPPSSYFNASGRAYPDVAALSDGYWVVSNRVPIPWVSGTSASTPVFGGILSLINEHRILSGRPPLGFLNPRLYQQHGAGLFDVTRGCHESCLDEEVEGQGFCSGPGWDPVTGWGTPNFPALLKTLLNP |
